Sequences and labels used below:
B1: TEV protease; numbered along this chain (parent)
chain: MGESLFKGPRDYNPISSSICHLTNESDGHTTSLYGIGFGPFIITNKHLFRRNNGTLVVQSLHGVFKVKDTTTLQQHLVDGRDMIIIRMPKDFPPFPQKLKFREPQREERICLVTTNFQTKSMSSMVSDTSCTFPSGDGIFWKHWIQTKDGQCGSPLVSTRDGFIVGIHSASNFTNTNNYFTSVPKNFMELLTNQEAQQWVSGWRLNADSVLWGGHKVFMVKPEEPFQPVKEATQL

The variants in the test derive from B1. The experiment in a line: raw area under fraction-flipped curve 0-4 h after induction (AUC4h, not background-subtracted), DNA-recorder readout of cleavage of the substrate (dimensionless); higher = more cleavage of the substrate by the protease variant. The settings on record: temperature: 34 °C; time window: 0-4 h after rhamnose induction. The procedure: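 In vivo DNA recorder in E. coli TOP10(DE3) ΔrhaA at 34 °C. Each TEVp single-site mutant (parent TEVp 0) is paired with a single-site variant of the 7-mer TEVs (canonical ENLYFQ|S). The substrate sits between flexible linkers in a Bxb1-sfGFP-TEVs-SsrA fusion, so cleavage stabilises Bxb1 and speeds flipping of a recombination array, read by NGS. The value is the raw area under the fraction-flipped curve over 0-4 h after rhamnose induction (AUC4h), with ≥20 reads per time point. It is not background-subtracted; inactive controls average about 0.047.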

This is one part of the list. The full chains were built here from the parent and the listed change. Inactive controls read about 0.05.
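Note: Bxb1 expression induced with 0.2% (w/v) L-rhamnose at OD600 near 0.5, cultures sampled hourly, flipped fraction per protease–substrate barcode pair counted by paired-end Illumina sequencing.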

For MGESLFKGPSDYNPISSSICHLTNESDGHTTSLYGIGFGPFIITNKHLFRRNNGTLVVQSLHGVFKVKDTTTLQQHLVDGRDMIIIRMPKDFPPFPQKLKFREPQREERICLVTTNFQTKSMSSMVSDTSCTFPSGDGIFWKHWIQTKDGQCGSPLVSTRDGFIVGIHSASNFTNTNNYFTSVPKNFMELLTNQEAQQWVSGWRLNADSVLWGGHKVFMVKPEEPFQPVKEATQL [R10S], the “area with substrate ENLYFAS” value worked out at 0.0659, the “area with substrate ENLYFCS” value was found to be 0.0553, the “area with substrate ENLYFDS” value stood at 0.0604 and the “area with substrate ENLYFES” value is 0.0573. The “area with substrate ENLYFFS” value was 0.0537, the “area with substrate ENLYFGS” value was 0.0059, the “area with substrate ENLYFHS” value stood at 0.0679 and the “area with substrate ENLYFIS” value came to 0.0589. For the same variant, the “area with substrate ENLYFKS” value was determined as 0.0594, the “area with substrate ENLYFLS” value worked out at 0.0443, the “area with substrate ENLYFMS” value came out at 0.0651 and the “area with substrate ENLYFNS” value came out at 0.0717. Moreover, the “area with substrate ENLYFPS” value amounted to 0.0579, the “area with substrate ENLYFRS” value worked out at 0.0629, the “area with substrate ENLYFSS” value turned out to be 0.0611 and the “area with substrate ENLYFVS” value is 0.0414. The “area with substrate ENLYFWS” value amounted to 0.0627.

With MGESLFKGPKDYNPISSSICHLTNESDGHTTSLYGIGFGPFIITNKHLFRRNNGTLVVQSLHGVFKVKDTTTLQQHLVDGRDMIIIRMPKDFPPFPQKLKFREPQREERICLVTTNFQTKSMSSMVSDTSCTFPSGDGIFWKHWIQTKDGQCGSPLVSTRDGFIVGIHSASNFTNTNNYFTSVPKNFMELLTNQEAQQWVSGWRLNADSVLWGGHKVFMVKPEEPFQPVKEATQL [R10K], the “area with substrate ENLYFAS” value amounted to 0.0511, the “area with substrate ENLYFCS” value amounted to 0.0586, the “area with substrate ENLYFES” value was determined as 0.0663 and the “area with substrate ENLYFFS” value was determined as 0.0606. Besides, the “area with substrate ENLYFHS” value was 0.0694, the “area with substrate ENLYFIS” value was determined as 0.0585, the “area with substrate ENLYFKS” value worked out at 0.0601 and the “area with substrate ENLYFMS” value is 0.0701. Moreover, the “area with substrate ENLYFNS” value worked out at 0.0651, the “area with substrate ENLYFPS” value was 0.0594, the “area with substrate ENLYFRS” value amounted to 0.0555 and the “area with substrate ENLYFSS” value is 0.0686. For the same variant, the “area with substrate ENLYFTS” value was found to be 0.0553 and the “area with substrate ENLYFVS” value came out at 0.0557.

Take MGESLFKGPRDYSPISSSICHLTNESDGHTTSLYGIGFGPFIITNKHLFRRNNGTLVVQSLHGVFKVKDTTTLQQHLVDGRDMIIIRMPKDFPPFPQKLKFREPQREERICLVTTNFQTKSMSSMVSDTSCTFPSGDGIFWKHWIQTKDGQCGSPLVSTRDGFIVGIHSASNFTNTNNYFTSVPKNFMELLTNQEAQQWVSGWRLNADSVLWGGHKVFMVKPEEPFQPVKEATQL [N13S]: the “area with substrate ENLYFAS” value amounted to 0.0677, the “area with substrate ENLYFCS” value came to 0.0695, the “area with substrate ENLYFES” value is 0.0528 and the “area with substrate ENLYFFS” value turned out to be 0.0693. The “area with substrate ENLYFGS” value was 0.0558, the “area with substrate ENLYFHS” value was 0.063, the “area with substrate ENLYFIS” value was found to be 0.0572 and the “area with substrate ENLYFKS” value was 0.0662. Besides, the “area with substrate ENLYFMS” value came out at 0.0644, the “area with substrate ENLYFNS” value was 0.0637, the “area with substrate ENLYFPS” value turned out to be 0.064 and the “area with substrate ENLYFRS” value is 0.061. Also, the “area with substrate ENLYFSS” value was found to be 0.0604, the “area with substrate ENLYFTS” value came out at 0.0487, the “area with substrate ENLYFWS” value is 0.0571 and the “area with substrate ENLYFYS” value is 0.0538.

For the variant MGESLFKGPRDYWPISSSICHLTNESDGHTTSLYGIGFGPFIITNKHLFRRNNGTLVVQSLHGVFKVKDTTTLQQHLVDGRDMIIIRMPKDFPPFPQKLKFREPQREERICLVTTNFQTKSMSSMVSDTSCTFPSGDGIFWKHWIQTKDGQCGSPLVSTRDGFIVGIHSASNFTNTNNYFTSVPKNFMELLTNQEAQQWVSGWRLNADSVLWGGHKVFMVKPEEPFQPVKEATQL [N13W], the “area with substrate ENLYFAS” value is 0.0633, the “area with substrate ENLYFCS” value was found to be 0.0555, the “area with substrate ENLYFDS” value came to 0.063 and the “area with substrate ENLYFES” value was 0.0785. Further, the “area with substrate ENLYFFS” value is 0.0738, the “area with substrate ENLYFGS” value was 0.0592, the “area with substrate ENLYFHS” value was found to be 0.0608 and the “area with substrate ENLYFIS” value was 0.0531. Further, the “area with substrate ENLYFKS” value was found to be 0.0668, the “area with substrate ENLYFLS” value came to 0.0616, the “area with substrate ENLYFMS” value was 0.0665 and the “area with substrate ENLYFNS” value was 0.0712. For the same variant, the “area with substrate ENLYFPS” value came to 0.0645, the “area with substrate ENLYFRS” value amounted to 0.0612, the “area with substrate ENLYFSS” value worked out at 0.0545 and the “area with substrate ENLYFTS” value amounted to 0.0632. Also, the “area with substrate ENLYFVS” value was found to be 0.0605, the “area with substrate ENLYFWS” value amounted to 0.0577 and the “area with substrate ENLYFYS” value stood at 0.0675.

For the origin of these results see the supplement of paper PMC12217912.
